Data taken from paper PMC12136788.
Positions count from the first letter of the chain named. Some of the results follow.

T1: UNK ZnF1-3 (human, UniProt Q9C0B0 31-174)
T1 sequence: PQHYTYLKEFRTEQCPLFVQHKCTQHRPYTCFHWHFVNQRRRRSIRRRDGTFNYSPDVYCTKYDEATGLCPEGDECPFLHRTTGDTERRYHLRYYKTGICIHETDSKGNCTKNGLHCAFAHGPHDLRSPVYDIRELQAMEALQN

B1: 81594963_81596974_2799_CDS_ENSG00000153956_ENST00000356860|human|control|control (ssRNA)
RNA: GGGAGUUCUACAGUCCGACGAUCAAUCACACAAUCCAUUACGUCACUGUUUCUUUUGCAGUCACAAACUGGACCAGCACACGGAUCUCUGAUUGAGGUUUUGGUGAAAUUCUCUAUCCAGGAAUUUACAUCAAUUUUAAUUCCCAACAGAGGAUUGAGCAUCA
B2: chr18:10010065:10010066:-_ENSMUSG00000047879_ENSMUST00000092096|mus_hu|FALSE|FALSE (ssRNA)
RNA: GGGAGUUCUACAGUCCGACGAUCUAGAAUAAUAGGUGGAAUACUGGAAGAAGUUUUAUCCAUGGAAUCAAACAAAUCUCUAAGGGCUGCAGUAAUAUACUGCGCUGAAGCCAUUUCCCCUGAAGCUCUCAAGGCACCUGCAUACAACAGAGGAUUGAGCAUCA
B3: chr19:15979567:15979568:-_ENSMUSG00000024640_ENSMUST00000025542|mus_mus|motif|central (ssRNA)
RNA: GGGAGUUCUACAGUCCGACGAUCACAGGCUAAUUUUAAACCCUAGGCUCCCCAUCAGAAUGUUUAAAAGCAGCACCUGACGGAAAAAGCAAGCAGAAUAAUUCACAGGCAAUGAAUGGCUUAGAUGACUUAGGACUUUAAUGUCAACAGAGGAUUGAGCAUCA
B4: 3127346_3129100_1597_3pUTR_ENSG00000197386_ENST00000355072|human|control|control (ssRNA)
RNA: GGGAGUUCUACAGUCCGACGAUCUGUGUGCUGUGACCGUGGCUGUUCUGUGAUGAUGUCAUGACCUGCUGACCCUGGAGUGGAAACCCCUGAAGAAGCAGCCAGCUCUCCACUGAUCUCAUCCUUCACUGAGGCUGUUAAGGCCAACAGAGGAUUGAGCAUCA
B5: chr1:180854502:180854503:+_ENSG00000143324_ENST00000367589|hu_mus|FALSE|FALSE (ssRNA)
RNA: GGGAGUUCUACAGUCCGACGAUCAUAUAAUUUAAAAAGUACAACCAGGUUUAGAAGCCCCGAAUUUAAAAGCAGGCCAUGGUAGGGGUGUCGUAAAAUUCAACAUCACCUUUUAAUACAGCUGGGUUUAAAAAUAGCCACCAACAACAGAGGAUUGAGCAUCA
B6: 130535856_130535976_749_3pUTR_ENSMUSG00000025532_ENSMUST00000026608|mouse|control|control (ssRNA)
RNA: GGGAGUUCUACAGUCCGACGAUCGCGGCACAGGCCACACAAGCCUUUCUACCCCAGACAGCUGCAGUCCUGCUCCCCCAUCUUAGCCCCUGCCCUGCUCUGACCCCAAAGCACAAAGAUUUCUUUUCAUCUUAUUUUUGUGAUCAACAGAGGAUUGAGCAUCA
B7: 55453617_55469543_8065_CDS_ENSMUSG00000027799_ENSMUST00000029374|mouse|control|control (ssRNA)
RNA: GGGAGUUCUACAGUCCGACGAUCCCUAGGCGGAUGCGGCUCAAUGAGCAACUGAGAUGGCGUCUGUCCAAAGUUCUGUAUCUGUGCUUCCAUGGCCUCCCGGAGCACAGGGUCUGUGAUGCUGUCCAGGUUUACAGAGCCUUCCAACAGAGGAUUGAGCAUCA
B8: chr5:37680062:37680063:+_ENSMUSG00000029121_ENSMUST00000031004|mus_hu|mus_mus_mus_hu_False|98_98 (ssRNA)
RNA: GGGAGUUCUACAGUCCGACGAUCUUUGGGUGUAGCUGGCACCUCGUACACAGGACCGUCAUACAUGCCCCUGGAAACCCCUUGCAAUCCAAAAACCUUAUUCCUGAUUUUGACGCGCUGGUACAGGUGCUCCGGGAACGCCUUCAACAGAGGAUUGAGCAUCA
B9: 15468751_15468984_1553_CDS_ENSG00000164985_ENST00000380738|human|control|control (ssRNA)
RNA: GGGAGUUCUACAGUCCGACGAUCUCCUUCACCAACCAAGAACAUGUUCUUAAACUUGUUAUACAACAUUGUAGACUUUUCCAUGAUUACCUGACUAACUUUGAAUCGCCGUAUUUUUUUCAGUGUAGUAAUCAUCUCUGUGUGCAACAGAGGAUUGAGCAUCA
B10: chr10:61147818:61147819:+_ENSMUSG00000020088_ENSMUST00000020285|mus_mus|FALSE|FALSE (ssRNA)
RNA: GGGAGUUCUACAGUCCGACGAUCUAGUCUGUCAUCUUUCAGCAUGUGAAGAAGAGUGGUUUUGCCCGCAUUGUCCAAUCCUAAGAAUACAAGUUUUCCAGAUUUCUUGUAGAGUCCUAGGAACUGGAGCACACUGCUGAAGCCCAACAGAGGAUUGAGCAUCA
B11: chr4:138441076:138441077:-_ENSG00000189184_ENST00000507846|hu_hu|motif|central (ssRNA)
RNA: GGGAGUUCUACAGUCCGACGAUCACACAACAAAUAAAACAAUUGCAGUAACAAAAAUAUGAUUUUAUAAAUGUUCUUAUACGGAAAAUAAAAGCAAAAAUAUGAGAUCAUGCACUGGAGACAAAAGCUAAAAAUGAAUAGUUACAACAGAGGAUUGAGCAUCA
B12: chr9:95013113:95013114:-_ENSG00000196305_ENST00000443024|hu_hu|hu_hu_hu_mus_False|68_68 (ssRNA)
RNA: GGGAGUUCUACAGUCCGACGAUCCUCAGUCAGAAAGGGCGUGUAAGGGGCCAUCAGUCUGCACAGAGAAAGCAGAACACUGAACAGUGUCUCCAGAGCCAUGACACAGUCUUCCACCCCACUCUCACCCUUUAACCUCCUCCUCAACAGAGGAUUGAGCAUCA
B13: 107143695_107143815_2784_3pUTR_ENSG00000125266_ENST00000245323|human|control|control (ssRNA)
RNA: GGGAGUUCUACAGUCCGACGAUCGGAAUGAUGUUGUUUUUCCCAGAAGUAGCUGUCCAAUUUGUUUUUUUAAGCGCUGAGCAUUGGGACCACUUAAUUGCCACAAAUGAAUUUCACAUCUUCUGGUGUGUACUGUGUGCAACCCAACAGAGGAUUGAGCAUCA
B14: chr9:95013113:95013114:-_ENSG00000196305_ENST00000443024|hu_hu|hu_hu_hu_mus_False|68_78 (ssRNA)
RNA: B12 RNA with C63A
B15: chr3:32582686:32582687:-_ENSG00000144635_ENST00000273130|hu_hu|FALSE|FALSE (ssRNA)
RNA: GGGAGUUCUACAGUCCGACGAUCUCUCUGGGGAGAAGCCGGGAAGUCUUCUCCUGGCUCUACAUAUUCUUGGAAGUCUCUAAUCAACUUUUGUUCCAUUUGUUUCAUUUCUUCAGGAGGGAUUUUCAGUUUGUCAACAUGUUCCAACAGAGGAUUGAGCAUCA
B16: chr1:185277986:185277987:-_ENSG00000116679_ENST00000392007|hu_mus|motif|central (ssRNA)
RNA: GGGAGUUCUACAGUCCGACGAUCCUGCUUGACUCGGUCCAUCUUCAGCUUCUUGGCUGCAGAAUAAACAUCUUUUACGGAUUCCUUAUCAGCUUUCAACUGAGCCGUGUAUGCAUAAUUCAGCAAGACUUCAACAGCUUCUGGCAACAGAGGAUUGAGCAUCA
B17: chr6:57672499:57672500:+_ENSMUSG00000062190_ENSMUST00000050077|mus_mus|FALSE|FALSE (ssRNA)
RNA: GGGAGUUCUACAGUCCGACGAUCUCGAAGCAGGUAGGUCUGGUCACCAGUGACCCGGUACAGCUGCAGGUACAAAAGUGCUAUGCCUGUCCAACCAGUAUAUGCAGAGCAGUCAUGAGGGUCCGCUGUCUUCAGUCCUUCCUCCAACAGAGGAUUGAGCAUCA
B18: chr18:48442549:48442550:+_ENSG00000082212_ENST00000321341|hu_mus|motif|central (ssRNA)
RNA: GGGAGUUCUACAGUCCGACGAUCAAUUGAUCUAACAUGACCUCUGUCUGAGAUUGAAAUAAACAAUCCCUUAGGUCUCCGGAAGAUGUGCCCAUAUUGACAGCAGGCAAGACCAACUGUUGGCGUGUACACAAUCGGCAUCAGCAACAGAGGAUUGAGCAUCA
B19: chr1:235505951:235505952:+_ENSG00000152904_ENST00000391855|hu_hu|FALSE|FALSE (ssRNA)
RNA: GGGAGUUCUACAGUCCGACGAUCUUUAUAGGCUUUAGCUUCAAGCUCUUUAAGGGUAUUACGAGUGUAUUCAAAAGAACCUACAUCCUCAAGAUAAUGUACACAGUAUUUUUUUAUAUCUAUGUUUUCUGUUCUCUGGCGCAACAACAGAGGAUUGAGCAUCA
B20: chr3:176740097:176740098:-_ENSG00000177565_ENST00000430069|hu_mus|motif|central (ssRNA)
RNA: GGGAGUUCUACAGUCCGACGAUCUGUUUUGUAUACCACAAAAGGAGGCACUUUCAGUAUCUGCAAAAGGUGUUUAGUCCGGAAACAUACUCACCUAGAGGAUAACUCAGGAAAACAAUCUGUUACACUCUAAGACCUACUCCACAACAGAGGAUUGAGCAUCA
B21: 123694707_123702949_1236_CDS_ENSG00000051825_ENST00000606320|human|control|control (ssRNA)
RNA: GGGAGUUCUACAGUCCGACGAUCUCCUGUUCCUGAAUCAGACAUCCAAGCAUUUGGAGUUUCAUCUGGUUUACUGAGGUAAAAAGCACGAGGAUGUGUAGCAGCAGCAAAAUCAGAUUUCUCAAUUGGUGUCUUCUUACUUUGCAACAGAGGAUUGAGCAUCA
B22: chr1:205685097:205685098:-_ENSG00000069275_ENST00000367142|hu_mus|FALSE|FALSE (ssRNA)
RNA: GGGAGUUCUACAGUCCGACGAUCUGUUACACCUAACUGCUGAGCACCGGUUUCCAGUUGAGUCACAUUAAAUGUGUUCCUGUUUGCAUACACGAUUUGAAGGGAAGACCAGAGUGUUAUAAACCACUAAAAAAAAAAGUGAAACAACAGAGGAUUGAGCAUCA

target: T1, UNK ZnF1-3; test: nsRBNS (natural sequence RNA bind-n-seq); RBNS binding buffer (assumed for nsRBNS): 25 mM Tris pH 7.5, 150 mM KCl, 3 mM MgCl2, 0.01% Triton X-100, 500 ug/ml BSA, 20 U/ml SUPERase-In, 4 C; UNK is unkempt and MSI1 is Musashi-1; names of the RNAs are library labels; protein concentration not given here; high values mean tight binding

Going from B1 to B2, the binding signal rises from 0.705 enrichment R to 1.65 enrichment R.

Compared with B3, B4 is lower in binding signal: 1.97 enrichment R for the first, 1.13 enrichment R for the second.

Going from B5 to B6, the binding signal falls from 3.06 enrichment R to 1.07 enrichment R.

Going from B7 to B8, the binding signal falls from 1.12 enrichment R to 0.768 enrichment R.

Compared with B9, B10 is higher in binding signal: 0.8 enrichment R for the first, 0.89 enrichment R for the second.

First: B11
Second: B12
The binding signal of the first is higher: 2.19 enrichment R for the first, 1.34 enrichment R for the second.

Going from B13 to B14, the binding signal rises from 0.834 enrichment R to 1.34 enrichment R.

Compared with B15, B16 is higher in binding signal: 0.678 enrichment R for the first, 0.805 enrichment R for the second.

Going from B17 to B18, the binding signal rises from 0.892 enrichment R to 0.967 enrichment R.

First: B19
Second: B20
The binding signal of the first is lower: 0.426 enrichment R for the first, 1.21 enrichment R for the second.

Going from B21 to B22, the binding signal rises from 1.14 enrichment R to 1.84 enrichment R.
